From the supplement of paper PMC8728848
This is one part of the list.

Experiments:
Test in all cases: glycan array binding signal (z-score within array); higher = stronger binding
Conditions in all cases: glycan notation: IUPAC condensed, linker removed
Fuc(a1-2)Gal = target: Fuc(a1-2)Gal
How it was run: (§1)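 The binding signal is a Z-score computed within each array and averaged over linkers. Arrays of the same protein sequence at different concentrations or buffers were also averaged together. Data originate from 3228 arrays in the Consortium for Functional Glycomics database, kept only where the protein sequence was available.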

Fuc(a1-2)Gal(b1-3)GalNAc = target: Fuc(a1-2)Gal(b1-3)GalNAc
How it was run: as §1

[1] = target: Fuc(a1-2)Gal(b1-3)GalNAc(a1-3)[Fuc(a1-2)]Gal(b1-4)Glc
How it was run: as §1

[2] = target: Fuc(a1-2)Gal(b1-3)GalNAc(a1-3)[Fuc(a1-2)]Gal(b1-4)GlcNAc
How it was run: as §1

[3] = target: Fuc(a1-2)Gal(b1-3)GalNAc(b1-3)Gal
How it was run: as §1

[4] = target: Fuc(a1-2)Gal(b1-3)GalNAc(b1-3)Gal(a1-4)Gal(b1-4)Glc
How it was run: as §1

[5] = target: Fuc(a1-2)Gal(b1-3)GalNAc(b1-4)[Neu5Ac(a2-3)]Gal(b1-4)Glc
How it was run: as §1

Fuc(a1-2)Gal(b1-3)GlcNAc = target: Fuc(a1-2)Gal(b1-3)GlcNAc
How it was run: as §1

[6] = target: Fuc(a1-2)Gal(b1-3)GlcNAc(b1-2)Man(a1-3)[Fuc(a1-2)Gal(b1-3)GlcNAc(b1-2)Man(a1-6)]Man(b1-4)GlcNAc(b1-4)GlcNAc
How it was run: as §1

[7] = target: Fuc(a1-2)Gal(b1-3)GlcNAc(b1-2)Man(a1-3)[Fuc(a1-2)Gal(b1-3)GlcNAc(b1-2)Man(a1-6)]Man(b1-4)GlcNAc(b1-4)[Fuc(a1-6)]GlcNAc
How it was run: as §1

[8] = target: Fuc(a1-2)Gal(b1-3)GlcNAc(b1-3)Gal(b1-4)Glc
How it was run: as §1

[9] = target: Fuc(a1-2)Gal(b1-3)GlcNAc(b1-3)GalNAc
How it was run: as §1

[10] = target: Fuc(a1-2)Gal(b1-3)GlcNAc(b1-3)[Fuc(a1-2)Gal(b1-3)GlcNAc(b1-6)]GalNAc
How it was run: as §1

[11] = target: Fuc(a1-2)Gal(b1-3)GlcNAc(b1-3)[Gal(b1-4)GlcNAc(b1-6)]Gal(b1-4)Glc
How it was run: as §1

[12] = target: Fuc(a1-2)Gal(b1-3)GlcNAc(b1-3)[Neu5Ac(a2-6)Gal(b1-4)GlcNAc(b1-6)]Gal(b1-4)Glc
How it was run: as §1

[13] = target: Fuc(a1-2)Gal(b1-3)GlcNAc6S
How it was run: as §1

[14] = target: Fuc(a1-2)Gal(b1-3)[Fuc(a1-4)]GlcNAc
How it was run: as §1

[15] = target: Fuc(a1-2)Gal(b1-3)[Fuc(a1-4)]GlcNAc(b1-2)Man(a1-3)[Fuc(a1-2)Gal(b1-3)[Fuc(a1-4)]GlcNAc(b1-2)Man(a1-3)]Man(b1-4)GlcNAc(b1-4)GlcNAc
How it was run: as §1

[16] = target: Fuc(a1-2)Gal(b1-3)[Fuc(a1-4)]GlcNAc(b1-2)Man(a1-3)[Fuc(a1-2)Gal(b1-3)[Fuc(a1-4)]GlcNAc(b1-2)Man(a1-6)]Man(b1-4)GlcNAc(b1-4)[Fuc(a1-6)]GlcNAc(b1-4)[Fuc(a1-6)]GlcNAc
How it was run: as §1

[17] = target: Fuc(a1-2)Gal(b1-3)[Fuc(a1-4)]GlcNAc(b1-3)[Fuc(a1-3)[Gal(b1-4)]GlcNAc(b1-6)]Gal(b1-4)Glc
How it was run: as §1

[18] = target: Fuc(a1-2)Gal(b1-3)[Fuc(a1-4)]GlcNAc(b1-3)[Gal(b1-4)GlcNAc(b1-6)]Gal(b1-4)Glc
How it was run: as §1

[19] = target: Fuc(a1-2)Gal(b1-4)Fuc(a1-3)]GlcNAc(b1-2)Man(a1-3)[Fuc(a1-2)Gal(b1-4)[Fuc(a1-3)]GlcNAc(b1-2)Man(a1-6)]Man(b1-4)GlcNAc(b1-4)GlcNAc
How it was run: as §1

Fuc(a1-2)Gal(b1-4)Glc = target: Fuc(a1-2)Gal(b1-4)Glc
How it was run: as §1

Fuc(a1-2)Gal(b1-4)Glc6S = target: Fuc(a1-2)Gal(b1-4)Glc6S
How it was run: as §1

Fuc(a1-2)Gal(b1-4)GlcNAc = target: Fuc(a1-2)Gal(b1-4)GlcNAc
How it was run: as §1

[20] = target: Fuc(a1-2)Gal(b1-4)GlcNAc(b1-2)Man
How it was run: as §1

[21] = target: Fuc(a1-2)Gal(b1-4)GlcNAc(b1-2)Man(a1-3)[Fuc(a1-2)Gal(b1-4)GlcNAc(b1-2)Man(a1-6)]Man(b1-4)GlcNAc(b1-4)GlcNAc
How it was run: as §1

[22] = target: Fuc(a1-2)Gal(b1-4)GlcNAc(b1-2)Man(a1-3)[Fuc(a1-2)Gal(b1-4)GlcNAc(b1-2)Man(a1-6)]Man(b1-4)GlcNAc(b1-4)[Fuc(a1-6)]GlcNAc
How it was run: as §1

[23] = target: Fuc(a1-2)Gal(b1-4)GlcNAc(b1-2)[Fuc(a1-2)Gal(b1-4)GlcNAc(b1-4)]Man(a1-3)[Fuc(a1-2)Gal(b1-4)GlcNAc(b1-2)Man(a1-6)]Man(b1-4)GlcNAc(b1-4)GlcNAc
How it was run: as §1

[24] = target: Fuc(a1-2)Gal(b1-4)GlcNAc(b1-3)Gal(b1-4)GlcNAc
How it was run: as §1

B1: DC-ASGPR-short (Homo sapiens) (protein)
chain: MTRTYENFQYLENKVKVQGFKNGPLPLQSLLQRLRSGPCHLLLSLGLGLLLLVIICVVGFQNSKFQRDLVTLRTDFSNFTSNTVAEIQALTSQGSSLEETIASLKAEVEGFKQERQAVHSEMLLRVQQLVQDLKKLTCQVATLNNNASTEGTCCPVNWVEHQDSCYWFSHSGMSWAEAEKYCQLKNAHLVVINSREEQNFVQKYLGSAYTWMGLSDPEGAWKWVDGTDYATGFQNWKPGQPDDWQGHGLGGGEDCAHFHPDGRWNDDVCQRPYHWVCEAGLGQTSQESH
glycan array binding signal (z-score) (Fuc(a1-2)Gal): -0.257 | glycan array binding signal (z-score) (Fuc(a1-2)Gal(b1-3)GalNAc): -0.273 | glycan array binding signal (z-score) [1]: -0.28 | glycan array binding signal (z-score) [2]: -0.266 | glycan array binding signal (z-score) [3]: -0.231 | glycan array binding signal (z-score) [4]: -0.258 | glycan array binding signal (z-score) [5]: 0.016 | glycan array binding signal (z-score) (Fuc(a1-2)Gal(b1-3)GlcNAc): -0.264 | glycan array binding signal (z-score) [6]: -0.216 | glycan array binding signal (z-score) [7]: -0.173 | glycan array binding signal (z-score) [8]: -0.273 | glycan array binding signal (z-score) [9]: -0.271 | glycan array binding signal (z-score) [10]: -0.245 | glycan array binding signal (z-score) [11]: -0.273 | glycan array binding signal (z-score) [12]: -0.276 | glycan array binding signal (z-score) [13]: 0.225 | glycan array binding signal (z-score) [14]: -0.274 | glycan array binding signal (z-score) [15]: -0.249 | glycan array binding signal (z-score) [16]: -0.25 | glycan array binding signal (z-score) [17]: -0.274 | glycan array binding signal (z-score) [18]: -0.276 | glycan array binding signal (z-score) [19]: -0.238 | glycan array binding signal (z-score) (Fuc(a1-2)Gal(b1-4)Glc): -0.265 | glycan array binding signal (z-score) (Fuc(a1-2)Gal(b1-4)Glc6S): -0.282 | glycan array binding signal (z-score) (Fuc(a1-2)Gal(b1-4)GlcNAc): -0.275 | glycan array binding signal (z-score) [20]: -0.271 | glycan array binding signal (z-score) [21]: -0.248 | glycan array binding signal (z-score) [22]: -0.189 | glycan array binding signal (z-score) [23]: -0.277 | glycan array binding signal (z-score) [24]: -0.279
